Test results: the supplement of paper PMC9151546
± gives the standard deviation of the averaged measurements. Many values rest on one well or one pass, so single values are uncertain.

Experiments:
CHO-K1 [1] = experiment: micronucleus frequency (% of nucleated events); higher = more micronuclei (genotoxic)
CHO-K1 [2] = experiment: hypodiploid nuclei frequency (% of nucleated events); higher = more hypodiploid events (aneugenic)
Protocol: (§1)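 Flow-cytometric in vitro micronucleus assay (Litron MicroFlow) in CHO-K1 cells in 96-well plates, 19 concentrations (4.5-200 µM, n=1 per concentration). Without S9, cells were exposed for 24 h and sampled at 48 h. With Aroclor 1254-induced rat liver S9, cells were exposed for 3-4 h and sampled at 27-28 h. Read-outs are %MN and %hypodiploid nuclei relative to nucleated events, and relative survival as the nuclei-to-bead ratio versus the 1% DMSO vehicle control (x100).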

CHO-K1 [3] = experiment: relative survival (nuclei to bead ratio vs DMSO control) (% of vehicle control); higher = more surviving cells
Protocol: as §1
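Throughout, for hypodiploid nuclei frequency (% of nucleated events): hypodiploid nuclei gated on a flow cytometer with 488 nm excitation after SYTOX Green staining, cultures at 37 °C, positive controls vinblastine without S9 and cyclophosphamide with S9.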
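Throughout, for micronucleus frequency (% of nucleated events): cells lysed with nuclei stained by SYTOX Green, then micronucleus-gated events counted against nucleated events by flow cytometry with 488 nm excitation.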
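Throughout, for relative survival (nuclei to bead ratio vs DMSO control): Lysed-cell nuclei stained with SYTOX Green and counted against counting beads by flow cytometry at 488 nm excitation, with vinblastine (no S9) and cyclophosphamide (plus S9) as positive controls.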

Nc1cccc2c(N)cccc12 [1,5-Naphthalenediamine]
Details	hypodiploid nuclei frequency, CHO-K1 [2] [%]	micronucleus frequency, CHO-K1 [1] [%]	relative survival, CHO-K1 [3]
concentration: 4.5 (µM), S9 metabolic activation: with S9, exposure time: 3-4 hours	–	–	45.7 ± 8.9
concentration: 4.5 (µM), S9 metabolic activation: without S9, exposure time: 24 hours	0.54	1.16	130
concentration: 5.63 (µM), S9 metabolic activation: with S9, exposure time: 3-4 hours	–	–	45.5 ± 10
concentration: 5.63 (µM), S9 metabolic activation: without S9, exposure time: 24 hours	0.28	1.12	102
concentration: 7.04 (µM), S9 metabolic activation: with S9, exposure time: 3-4 hours	–	–	41.6 ± 6.7
concentration: 7.04 (µM), S9 metabolic activation: without S9, exposure time: 24 hours	0.48	1.4	106
concentration: 8.8 (µM), S9 metabolic activation: with S9, exposure time: 3-4 hours	–	–	38 ± 4.7
concentration: 8.8 (µM), S9 metabolic activation: without S9, exposure time: 24 hours	0.6	1.12	84.5
concentration: 11 (µM), S9 metabolic activation: with S9, exposure time: 3-4 hours	–	–	38.7 ± 9.4
concentration: 11 (µM), S9 metabolic activation: without S9, exposure time: 24 hours	0.64	1.22	90.3
concentration: 13.7 (µM), S9 metabolic activation: with S9, exposure time: 3-4 hours	–	–	38 ± 10
concentration: 13.7 (µM), S9 metabolic activation: without S9, exposure time: 24 hours	0.38	1.32	117
concentration: 17.2 (µM), S9 metabolic activation: with S9, exposure time: 3-4 hours	–	–	43.6 ± 15
concentration: 17.2 (µM), S9 metabolic activation: without S9, exposure time: 24 hours	0.62	1.02	76.5
concentration: 21.5 (µM), S9 metabolic activation: with S9, exposure time: 3-4 hours	–	–	42.3 ± 7.2
concentration: 21.5 (µM), S9 metabolic activation: without S9, exposure time: 24 hours	0.58	1.06	90
concentration: 26.8 (µM), S9 metabolic activation: with S9, exposure time: 3-4 hours	–	–	41.6 ± 9.7
concentration: 26.8 (µM), S9 metabolic activation: without S9, exposure time: 24 hours	0.82	1.48	93.1
concentration: 33.6 (µM), S9 metabolic activation: with S9, exposure time: 3-4 hours	–	–	34.4 ± 6.6
concentration: 33.6 (µM), S9 metabolic activation: without S9, exposure time: 24 hours	0.8	1.32	114
concentration: 41.9 (µM), S9 metabolic activation: with S9, exposure time: 3-4 hours	–	–	43 ± 9.1
concentration: 41.9 (µM), S9 metabolic activation: without S9, exposure time: 24 hours	0.76	1.54	107
concentration: 52.4 (µM), S9 metabolic activation: with S9, exposure time: 3-4 hours	–	–	41.7 ± 12
concentration: 52.4 (µM), S9 metabolic activation: without S9, exposure time: 24 hours	0.64	1	103
concentration: 65.5 (µM), S9 metabolic activation: with S9, exposure time: 3-4 hours	–	–	47.8 ± 13
concentration: 65.5 (µM), S9 metabolic activation: without S9, exposure time: 24 hours	0.82	0.9	104
concentration: 81.9 (µM), S9 metabolic activation: with S9, exposure time: 3-4 hours	–	–	37.83 ± 0.2
concentration: 81.9 (µM), S9 metabolic activation: without S9, exposure time: 24 hours	1.58	1.82	82.2
concentration: 102 (µM), S9 metabolic activation: with S9, exposure time: 3-4 hours	–	–	40 ± 0.67
concentration: 102 (µM), S9 metabolic activation: without S9, exposure time: 24 hours	2	1.52	81.2
concentration: 128 (µM), S9 metabolic activation: with S9, exposure time: 3-4 hours	2.86 ± 0.11	17 ± 5.7	47.4 ± 0.81
concentration: 128 (µM), S9 metabolic activation: without S9, exposure time: 24 hours	2.28	1.38	89.1
concentration: 160 (µM), S9 metabolic activation: with S9, exposure time: 3-4 hours	2.63 ± 0.28	13.9 ± 4.7	54.8 ± 17
concentration: 160 (µM), S9 metabolic activation: without S9, exposure time: 24 hours	23.3	2.08	44.1
concentration: 200 (µM), S9 metabolic activation: with S9, exposure time: 3-4 hours	2.04 ± 1	10.3 ± 5.3	48.9 ± 4
concentration: 200 (µM), S9 metabolic activation: without S9, exposure time: 24 hours	–	–	18.2

O=C=NCCCCCCN=C=O [1,6-Diisocyanatohexane]
Details	hypodiploid nuclei frequency, CHO-K1 [2] [%]	micronucleus frequency, CHO-K1 [1] [%]	relative survival, CHO-K1 [3]
concentration: 4.48 (µM), S9 metabolic activation: with S9, exposure time: 3-4 hours	0.22	1.42	119
concentration: 4.48 (µM), S9 metabolic activation: without S9, exposure time: 24 hours	0.8	2	115
concentration: 5.6 (µM), S9 metabolic activation: with S9, exposure time: 3-4 hours	0.16	1.8	124
concentration: 5.6 (µM), S9 metabolic activation: without S9, exposure time: 24 hours	0.92	2.76	117
concentration: 7 (µM), S9 metabolic activation: with S9, exposure time: 3-4 hours	0.36	2.14	128
concentration: 7 (µM), S9 metabolic activation: without S9, exposure time: 24 hours	0.62	1.56	128
concentration: 8.75 (µM), S9 metabolic activation: with S9, exposure time: 3-4 hours	0.28	2.26	149
concentration: 8.75 (µM), S9 metabolic activation: without S9, exposure time: 24 hours	0.58	2	125
concentration: 10.9 (µM), S9 metabolic activation: with S9, exposure time: 3-4 hours	0.22	1.64	137
concentration: 10.9 (µM), S9 metabolic activation: without S9, exposure time: 24 hours	0.78	2.08	154
concentration: 13.7 (µM), S9 metabolic activation: with S9, exposure time: 3-4 hours	0.28	1.52	163
concentration: 13.7 (µM), S9 metabolic activation: without S9, exposure time: 24 hours	0.52	2.08	139
concentration: 17.1 (µM), S9 metabolic activation: with S9, exposure time: 3-4 hours	0.2	1.32	146
concentration: 17.1 (µM), S9 metabolic activation: without S9, exposure time: 24 hours	0.36	1.66	116
concentration: 21.4 (µM), S9 metabolic activation: with S9, exposure time: 3-4 hours	0.24	1.78	149
concentration: 21.4 (µM), S9 metabolic activation: without S9, exposure time: 24 hours	0.52	2.14	109
concentration: 26.7 (µM), S9 metabolic activation: with S9, exposure time: 3-4 hours	0.24	1.26	125
concentration: 26.7 (µM), S9 metabolic activation: without S9, exposure time: 24 hours	0.62	1.7	81.1
concentration: 33.4 (µM), S9 metabolic activation: with S9, exposure time: 3-4 hours	0.2	1.18	116
concentration: 33.4 (µM), S9 metabolic activation: without S9, exposure time: 24 hours	0.7	1.66	103
concentration: 41.7 (µM), S9 metabolic activation: with S9, exposure time: 3-4 hours	0.22	1.46	112
concentration: 41.7 (µM), S9 metabolic activation: without S9, exposure time: 24 hours	0.72	1.64	89.9
concentration: 52.2 (µM), S9 metabolic activation: with S9, exposure time: 3-4 hours	0.24	1.6	91.8
concentration: 52.2 (µM), S9 metabolic activation: without S9, exposure time: 24 hours	0.94	1.84	84.1
concentration: 65.2 (µM), S9 metabolic activation: with S9, exposure time: 3-4 hours	0.22	2.02	102
concentration: 65.2 (µM), S9 metabolic activation: without S9, exposure time: 24 hours	0.88	1.62	89.5
concentration: 81.5 (µM), S9 metabolic activation: with S9, exposure time: 3-4 hours	0.22	1.86	98.8
concentration: 81.5 (µM), S9 metabolic activation: without S9, exposure time: 24 hours	0.74	1.52	101
concentration: 102 (µM), S9 metabolic activation: with S9, exposure time: 3-4 hours	0.24	1.36	106
concentration: 102 (µM), S9 metabolic activation: without S9, exposure time: 24 hours	1	1.94	99
concentration: 127 (µM), S9 metabolic activation: with S9, exposure time: 3-4 hours	0.24	1.74	110
concentration: 127 (µM), S9 metabolic activation: without S9, exposure time: 24 hours	1.06	2.84	109
concentration: 159 (µM), S9 metabolic activation: with S9, exposure time: 3-4 hours	0.3	1.82	101
concentration: 159 (µM), S9 metabolic activation: without S9, exposure time: 24 hours	1.04	2.18	84.1
concentration: 199 (µM), S9 metabolic activation: with S9, exposure time: 3-4 hours	0.46	1.86	101
concentration: 199 (µM), S9 metabolic activation: without S9, exposure time: 24 hours	1.22	2.2	75.5
